The GPR68 mutational scans of Howard et al. (2025)
Scores with a large standard error are left out. Not listed are two conditions whose scores span a narrow range. Names with del lack the residues named; names with ins carry added residues between the positions named. For some of these results: The data file names ogerin without a concentration.

B1: GPR68, Q15743 (parent)
chain: MGNITADNSSMSCTIDHTIHQTLAPVVYVTVLVVGFPANCLSLYFGYLQIKARNELGVYLCNLTVADLFYICSLPFWLQYVLQHDNWSHGDLSCQVCGILLYENIYISVGFLCCISVDRYLAVAHPFRFHQFRTLKAAVGVSVVIWAKELLTSIYFLMHEEVIEDENQHRVCFEHYPIQAWQRAINYYRFLVGFLFPICLLLASYQGILRAVRRSHGTQKSRKDQIQRLVLSTVVIFLACFLPYHVLLLVRSVWEASCDFAKGVFNAYHFSLLLTSFNCVADPVLYCFVSETTHRDLARLRGACLAFLTCSRTGRAREAYPLGAPEASGKSGAQGEEPELLTKLHPAFQTPNSPGSGGFPTGRLA

How the values were obtained:
[1] = variants of: B1; assay: cAMP reporter score (Enrich2 score, wild type = 0); higher = more signal; HEK293T, FACS bins
[2] = variants of: B1; assay: surface expression score (Enrich2 score, wild type = 0); higher = more signal; HEK293T, FACS bins

Variant	cAMP reporter score ([1]; pH 5.5)	cAMP reporter score ([1]; pH 6)	cAMP reporter score ([1]; pH 6, modulator: ogerin)	cAMP reporter score ([1]; pH 6.5, modulator: ogerin)	surface expression score [2]
F307C	0.211	-1.05	-0.684	-0.694	-0.649
F307D	-0.435	0.022	-0.081	-0.22	-0.081
F307E	0.759	0.323	1.3	0.702	1.41
F307G	1.03	0.508	0.914	0.495	0.086
F307H	1.01	0.31	1.09	0.465	0.739
F307I	1.78	0.453	1.16	-0.066	1.04
F307K	0.645	2.66	1.24	1.78	0.714
F307L	0.306	0.397	0.318	0.605	0.126
F307M	0.742	-0.137	0.752	-0.061	0.457
F307N	1.87	3.64		2.11	1.5
F307P	0.29	-0.315	0.23	0.246	-0.274
F307Q	-0.009	0.026	-0.042	-0.2	0.553
F307R	0.793	0.485	0.647	0.618	0.109
F307S	-0.027	0.212	0.244	0.51	-0.068
F307T	0.792	0.636	1.26	0.865	0.386
F307V	1.06	0.497	1.28	0.38	0.254

Variant	cAMP reporter score ([1]; pH 5.5)	cAMP reporter score ([1]; pH 6)	cAMP reporter score ([1]; pH 6, modulator: ogerin)	cAMP reporter score ([1]; pH 6.5, modulator: ogerin)	surface expression score [2]
F307Y	-0.546	1.15	-0.659	-0.058	-1.26
F307_L308insGS	0.797	-0.306	0.783	0.225	0.044
F307_L308insGSG	0.267	-1.12	-0.409	-0.161	-0.75
F307_T309del	0.125	0.007	0.097	-0.876	-0.333
L308_T309insG	0.691	2.05	0.03	0.91	0.578
T309_C310del	0.205		-0.046	0.484	0.054
T309_C310insG	0.366	0.015	-0.512	0.35	1.29
T309_C310insGSG	0.633	1.26	0.771	1.54	0.39
T309del	-0.025	0.049	0.694	0.084	0.054
S311C	0.737	0.795	0.325	-0.155	0.315
S311D	1.01	2.23	1.08	1.41	0.701
S311E	0.396	-0.632	0.291	0.485	-0.028
S311F	0.343		1.11	-0.114	0.894
S311G	0.157	1.29	-0.165		1.01
S311H	-0.126	-0.453	0.139	-0.3	-0.181
